Where “and” joins values, the source holds several entries; their conditions need not be identical. Identical values can stand only once. In all, about 350,000 compounds went through this assay and about 260 (0.074%) were called active. Inconclusive means that the source gave no clear call. Such entries were picked first, then a sample of the others. Calls follow the shape of the dose curve; as a rule, active = well fitted inhibition curve with a large enough effect; inconclusive = small, poorly fitted or top-dose-only effect; inactive = no such curve, though single readings can be large or run the other way. Potencies beside an inconclusive call are fits to weak or partial responses and may not hold up.
The molecules below were run against Ferritin light chain (Equus caballus) (UniProt P02791) (assay: qHTS Assay for Identification of Novel General Anesthetics). Details: apoferritin/1-aminoanthracene competitive binding, fluorescence; activity change, negative = displacement: at 77.5 µM (top of the series).
Chain of UniProt P02791 (P02791 whole entry, looked up): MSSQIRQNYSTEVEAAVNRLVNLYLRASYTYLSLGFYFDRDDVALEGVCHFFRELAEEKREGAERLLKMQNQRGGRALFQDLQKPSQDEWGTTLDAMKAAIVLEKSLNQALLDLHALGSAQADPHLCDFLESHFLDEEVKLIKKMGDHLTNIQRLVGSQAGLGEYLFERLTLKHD
Outline: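 Steps: apoferritin (10 uM) was premixed with half-saturated 1-AMA in PBS, compounds were pin-transferred, plates stood 10 min at room temperature, fluorescence was read at 380/535 nm, and curves were fitted with a Hill equation.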
% is scaled to controls: 0 for no effect and ±100 for the full control effect; potency is read from the fitted curve at half-maximal effect; tags tell the direction and shape of the fitted curve.
Also: nearly all actives have a fitted effect of over 20% in size.

Compound	Potency	activity change, negative = displacement
COc1ccc(OC)c(C(=O)COC(=O)c2ccccc2O)c1	inconclusive: 39.8 µM [inhibitor, partial curve]	
CSc1nc(C(=O)N2CCCC(N3CCN(c4ccccc4C)CC3)C2)cs1 (configuration not stated)	inconclusive: 56.2 µM [inhibitor, single point]	
Cn1c2c(c(=O)n3ncnc13)CCCC2		inactive: 6.03%
CCOc1ccc(/C=C2/SC(=O)NC2=S)cc1		inactive: -10.7%
O=C(CCNS(=O)(=O)c1ccccc1C(F)(F)F)NCc1ccc2c(c1)OCO2	inconclusive: 35.5 µM [inhibitor, partial curve]	
COc1cc(C=O)ccc1OCCSc1ccc(Cl)cc1	inconclusive: 17.8 µM [inhibitor, partial curve]	
Cc1cc(C(=O)NCC(=O)OCC(=O)N(C)C2CCCCC2)ccc1[N+](=O)[O-]	inconclusive: 31.6 µM [inhibitor, partial curve]	
CC1OC(Nc2ccc(N=Nc3ccccc3)cc2)C(O)C(O)C1O (configuration not stated)	inconclusive: 35.5 µM [inhibitor, single point]	
C=CCn1c(=O)/c(=C\c2ccccn2)s/c1=C(/C#N)C(=O)NCC1CCCO1 (configuration not stated)		inactive: -7.39%
CN(C)c1ccc(NC(=O)Cn2nnc3sc4c(c3c2=O)CCC(C(C)(C)C)C4)cc1 (configuration not stated)	inconclusive: 22.4 µM [inhibitor, partial curve]	
CC1CCN(S(=O)(=O)c2cccc(-c3csc(-c4cccnc4)n3)c2)CC1	inconclusive: 28.2 µM [inhibitor, partial curve]	
N#Cc1c(N2CCN(c3ccc(F)cc3)CC2)nc(N)c2c(N)nc3c(c12)CC(=O)N3C1CC1	inconclusive: 35.5 µM [inhibitor, partial curve]	
Cc1cccn2c(N)c(-c3ccccc3)nc12		inactive: 53%
CC1CCCCN1C(=O)COC(=O)c1n[nH]c2ccccc12 (configuration not stated)	inconclusive: 25.1 µM [inhibitor, partial curve]	
CCNC(=O)/C(=C/c1ccc2c(c1)OCO2)NC(=O)c1ccc(Br)cc1	inconclusive: 35.5 µM [inhibitor, partial curve]	
O=C(Nc1ccc2c(c1)OCCO2)C1CCCN(S(=O)(=O)Cc2ccccc2)C1 (configuration not stated)	inconclusive: 20 µM [inhibitor, partial curve]	
Cc1nn(CCC(N)=S)c2nc(-c3cccs3)cc(C(F)(F)F)c12	inconclusive: 35.5 µM [inhibitor, single point]	
COc1cccc(CNC(=O)CN2C(=O)N(c3ccc(C)cc3C)S(=O)(=O)c3ccccc32)c1OC		inactive: 2.52%
O=C(CSc1nccn1-c1cccc(Cl)c1)Nc1cccc2ccccc12		inactive: 2.02%
CCCCC[C@H](O)C/C=C1/C(=O)C=C[C@@H]1C/C=C\CCCC(=O)O		inactive: -9.19%
CCCCCCOc1ccc(N2C(=O)CC(NCCc3ccc(S(N)(=O)=O)cc3)C2=O)cc1 (configuration not stated)	inconclusive: 12.6 µM [inhibitor, partial curve]	
COc1ccc(-c2nc3cc(C)ccn3c2NC(=O)c2cccc(F)c2)cc1	inconclusive: 20 µM [inhibitor, partial curve]	
CCOc1ccccc1NC(=O)CN1CCc2ccccc2C1	inconclusive: 17.8 µM [inhibitor, partial curve]	

Compound	Potency	activity change, negative = displacement
CCC1(CC)NC(=O)N(CC(=O)OCC(=O)Nc2sccc2C#N)C1=O	inconclusive: 14.1 µM [inhibitor, partial curve]	
O=C1c2cccnc2C(=O)N1C1CCCCC1	inconclusive: 39.8 µM [inhibitor, partial curve]	
COc1cccc(/C=C2\SC(=S)N(CCCC(=O)N3CCCC3)C2=O)c1	inconclusive: 31.6 µM [inhibitor, partial curve]	
O=[N+]([O-])c1ccc(-n2nncc2-c2ccc(Cl)cc2)cc1	inconclusive: 35.5 µM [inhibitor, partial curve]	
COc1ccc(CNC(=O)CCOc2ccc(C(C)(C)C)cc2)cc1	inconclusive: 17.8 µM [inhibitor, partial curve]	
O=C(CSc1nc(-c2ccccc2F)nc2cc(=O)[nH]n12)Nc1cccc(C(F)(F)F)c1	inconclusive: 3.98 µM [inhibitor, full curve]	
COc1cc2oc(=O)cc(-c3cccc(-c4cccc(C)c4)c3)c2c(OC)c1OC	inconclusive: 31.6 µM [inhibitor, partial curve]	
Cc1nc(C(=O)NCCC(C)C)sc1C1(C)CC(c2cccc([N+](=O)[O-])c2)=NO1 (configuration not stated)	inconclusive: 25.1 µM [inhibitor, partial curve]	
S=C(Nc1cccnc1)NC1CCCCCCC1		inactive: -1.42%
O=C(O)CSC(=S)N1CCCC1		inactive: -0.229%
C=CCn1c(Cc2cccs2)nnc1SCC(=O)Nc1cccc(OC)c1	inconclusive: 22.4 µM [inhibitor, partial curve]	
Cc1ccccc1NC(=O)CN1C(=O)NC2(CCCCC2)C1=O	inconclusive: 31.6 µM [inhibitor, single point]	
Cc1cc(C)cc(OCC(=O)NCc2nc(-c3ccccc3)no2)c1	inconclusive: 8.91 µM [inhibitor, partial curve]	
O=C(COc1ccc(/C=N/NC(=O)c2cc3ccccc3o2)cc1Br)Nc1ccccc1		inactive: -7.75%
CN1C(=O)c2ccccc2N(C)C1c1ccccc1Cl (configuration not stated)		inactive: 68.1%
Oc1ccc(NC(=S)N=Nc2c(O)[nH]c3ccc(Br)cc23)cc1	inconclusive: 35.5 µM [inhibitor, single point]	
CC1(C(=O)NC(=S)N(CCC#N)c2ccccc2)CC1(Cl)Cl (configuration not stated)		inactive: -8.21%
CCOc1ccccc1C(=O)N/N=C/c1coc2ccc(Cl)cc2c1=O	inconclusive: 20 µM [inhibitor, partial curve]	
O=c1[nH]c2ccccc2n1CCCSCCCn1c(=O)[nH]c2ccccc21	inconclusive: 39.8 µM [inhibitor, partial curve]	
CCCC(=O)N1CCc2cc(OC)c(OC)cc2C1COc1ccc(C(=O)OC)cc1 (configuration not stated)		inactive: 2.84%
CC(=O)c1cccc(Nc2ccc(-c3ccccc3F)nn2)c1	inconclusive: 17.8 µM [inhibitor, partial curve]	
O=C(NN1C(=O)NC2(CCCCC2)C1=O)c1ccc(-c2ccc([N+](=O)[O-])cc2)o1	inconclusive: 25.1 µM [inhibitor, partial curve]	
C[C@]12CC[C@@H]3c4ccc(O)cc4CC[C@H]3[C@@H]1C[C@@H](O)[C@@H]2O[C@@H]1O[C@H](C(=O)O)[C@@H](O)[C@H](O)[C@H]1O		inactive: 11.6%

Compound	Potency	activity change, negative = displacement
CCCn1c(C)cc(-c2csc(N)n2)c1C	inconclusive: 39.8 µM [inhibitor, partial curve]	
CC(C(=O)N1CCc2ccccc21)n1cccc1 (configuration not stated)	inconclusive: 39.8 µM [inhibitor, partial curve, poor fit]	
Cc1ccc(-c2ccc(=O)n(CC(=O)Nc3ccc(F)c(Cl)c3)n2)cc1C	inconclusive: 3.98 µM [inhibitor, full curve]	
O=C(c1ccc(Br)o1)N1CCN(Cc2ccccc2Cl)CC1	inconclusive: 50.1 µM [inhibitor, partial curve]	
Cc1nc(SCC(=O)c2ccccc2)c(C#N)c(-c2ccco2)c1C(=O)NCc1ccco1	inconclusive: 39.8 µM [inhibitor, partial curve]	
Nc1ccccc1C#Cc1ccccc1	inconclusive: 15.8 µM [inhibitor, partial curve] and inconclusive: 20 µM [inhibitor, partial curve]	
COc1ccccc1C(=O)Nc1nnc(S(=O)(=O)N2CCCCCC2)s1	inconclusive: 15.8 µM [inhibitor, partial curve]	
Cc1ccc(C)c(-n2nnnc2SCC(=O)c2ccc3c(c2)NC(=O)CO3)c1	inconclusive: 11.2 µM [inhibitor, partial curve]	
CCOc1ccc(NC(=O)CSC2=Nc3ccccc3C3=NC(CC(=O)NCc4ccc5c(c4)OCO5)C(=O)N23)cc1 (configuration not stated)	inconclusive: 14.1 µM [inhibitor, partial curve]	
COc1ccc(-n2cnnc2SCC(=O)Nc2nc(C)c(Cl)cc2Cl)cc1	inconclusive: 28.2 µM [inhibitor, partial curve]	
Nc1cccc(Oc2ccc([N+](=O)[O-])cc2)c1	inconclusive: 28.2 µM [inhibitor, partial curve]	
O=C(CCC(=O)N1CCOc2ccc(Cl)cc21)NCCCN1CCC(Cc2ccccc2)CC1	inconclusive: 15.8 µM [inhibitor, partial curve]	
Cc1ccc(-n2nnnc2-c2cnc3ccc(Cl)cc3c2-c2ccccc2)cc1		inactive: -14.3%
O=S(=O)(NCc1ccccc1)c1ccc(Br)s1	inconclusive: 44.7 µM [inhibitor, single point]	
Cc1cc(Br)ccc1NC(=O)C1(S(=O)(=O)c2ccc(Cl)cc2)CC1		inactive: -8.45%
O=C1CN(C(=O)c2ccc3nc(Cc4cccc(Cl)c4)oc3c2)CCN1		inactive: -7.47%
O=c1cc(COc2ncnc3c(Cl)cc(Cl)cc23)nc2sccn12		inactive: -3.4%
CC1CCCCN1CC(=O)N1CCCc2c1c(=O)oc1ccc(OCc3ccccc3)cc21 (configuration not stated)	inconclusive: 7.08 µM [inhibitor, partial curve]	
N/C(Cc1ccc(Cl)cc1)=N\OC(=O)c1cccc2ccccc12	inconclusive: 10 µM [inhibitor, partial curve]	
CC1=CC(=O)C=CC1(C)C(Cl)(Cl)Cl (configuration not stated)	inconclusive: 28.2 µM [inhibitor, partial curve]	
CC(=O)c1cccc(S(=O)(=O)N2CCCC(c3nc(-c4ccc(C)o4)no3)C2)c1 (configuration not stated)	inconclusive: 22.4 µM [inhibitor, partial curve]	
